Laboratory results as given in PubChem BioAssay AID1963576 (National Center for Advancing Translational Sciences (NCATS), 2024).
Among all 46,000 compounds or so, about 60 (0.1%) were called active. Another 3% or so got no clear call; they are omitted. The call rests on the fitted dose curve; in most records, active means well fitted inhibition curve with a large enough effect; inconclusive means small, poorly fitted or top-dose-only effect; inactive means no such curve, though single readings can be large or run the other way. The list shows a part of the results.
Potency means the concentration at half of the fitted maximal effect.

Assay: Primary qHTS assay for Inhibitors of ovarian cancer metastasis using an organotypic tumor microenvironment (TME) model. Further: nearly all actives have a fitted effect of over 65% in size.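 On Potency: count of GFP cancer cells still attached after washing and fixation.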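 On activity change, negative = inhibition: plate controls were DMSO wells for no effect and tomatine positive control wells for full effect.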
Conditions: SKOV3ip1-GFP adhesion/invasion on 3D omental model, fluorescence; series mostly up to 45.8 µM; activity change, negative = inhibition: at the top concentration
Summary of the method: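 Adhesion/invasion was scored as fixed GFP-labeled SKOV3ip1 cell counts (488/509 nm), normalized to DMSO and tomatine controls. Cancer cells in serum-free medium, with four compound doses (0.36-46 umol/L), sat 2 hr at RT then 16 hr at 37 C on a 48 hr fibroblast/mesothelial/ECM culture.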
In the case of `COc1ccc(-c2c(C)c3ccc(O)c(CN4CCCCC4)c3oc2=O)cc1OC`, the “activity change, negative = inhibition” value is reported as inactive: -5.63%. With `Cc1ccc2nc(N(Cc3cccnc3)C(=O)c3ccco3)sc2c1` the “outcome” value was “inactive”. In the case of `Cc1nc(SCc2cc(=O)c3cccc(F)c3[nH]2)n[nH]1`, the “activity change, negative = inhibition” value is reported as inactive: -3.7%. In the case of `CCc1ccc(NC(=O)CC2C(=O)NCCN2C(=O)c2ccccc2OC)cc1` (stereo not drawn), the “outcome” value is reported as “inactive”. For `CCOc1ccc(S(=O)(=O)NCCc2csc3nc(-c4ccc(OC)c(OC)c4)nn23)cc1`, the “activity change, negative = inhibition” value was inactive: 12%. With `COc1cn(CC(=O)Nc2c(C)cc(C)cc2C)c(CN2CCCCC2)cc1=O` the “outcome” value was “inactive”. In the case of `CC(C)c1ccc(NC(=O)c2ccc3oc(=O)c(S(=O)(=O)c4ccc(F)cc4)cc3c2)cc1`, the “activity change, negative = inhibition” value is reported as inactive: -17%. In the case of `CCOCCc1nn2c(=O)cc(COC(=O)COc3ccc(C)c(C)c3)nc2s1`, the “activity change, negative = inhibition” value is reported as inactive: 5.04%. In the case of `COc1ccc(NC(=O)Cn2ncc3c(C)n(Cc4cccc(Cl)c4)c(C)c3c2=O)cc1`, the “activity change, negative = inhibition” value is reported as inactive: -12.6%. In the case of `Clc1cccc(CSc2nc(NCCc3ccccc3)c3ccccc3n2)c1`, the “outcome” value is reported as “inactive”. With `COc1ccccc1CNCc1ccc(C(=O)O)s1` the “outcome” value was “inactive”. For `CC(C)c1ccc(NC(=O)CSc2ncnc3c2sc2ccccc23)cc1`, the “activity change, negative = inhibition” value was inactive: -9.55%. In the case of `CC(C)CCOc1ccc(Cn2c(=O)sc3ccccc32)cc1`, the “activity change, negative = inhibition” value is reported as inactive: 0.643%. In the case of `CCOc1ccc(CCNC(=O)CSc2nc3ccccc3nc2Cc2ccc(C)cc2)cc1OCC`, the “activity change, negative = inhibition” value is reported as inactive: 1.6%. For `COc1ccc(-c2nc3sc(CCNC(=O)Cc4ccc(Cl)cc4)c(C)n3n2)cc1`, the “outcome” value was “inactive”. In the case of `COc1ccc(C(=O)Nc2ccc(N3CCN(c4ccccc4)CC3)c(C(=O)O)c2)cc1`, the “activity change, negative = inhibition” value is reported as inactive: -1.32%. For `COc1c(C)cccc1C(=O)Nc1ccc(Cl)c(-c2nc3cc(C)ccc3o2)c1`, the “activity change, negative = inhibition” value was inactive: -7.59%. In the case of `CCOc1ccc(CCNC(=O)C(CC(C)C)N2Cc3ccccc3C2=O)cc1OCC` (stereo not drawn), the “outcome” value is reported as “inactive”. For `CCN(CC)c1ccc(C(=O)NCc2ccc3c(c2)CCN3C(=O)c2cccc(C)c2)cc1`, the “activity change, negative = inhibition” value was inactive: -8.76%. With `CCOc1ccc(C2C(=O)N(C3CCCCCC3)CC(=O)N2Cc2ccc(F)cc2)cc1OC` (stereo not drawn) the “activity change, negative = inhibition” value was inactive: -5.35%. With `CCN(CC)c1ccc(NC(=O)CN(C)S(=O)(=O)c2cccc3nsnc23)c(C)c1` the “activity change, negative = inhibition” value was inactive: -17%. In the case of `Nc1nnc(SCC(=O)Nc2cccc(F)c2)s1`, the “activity change, negative = inhibition” value is reported as inactive: 3.3%. In the case of `Cc1ccc(NC(=O)C2CCCN(c3cnccn3)C2)cc1Cl` (stereo not drawn), the “activity change, negative = inhibition” value is reported as inactive: 16.5%. For `Cc1ccc(CS(=O)Cc2ccc(C(=O)NCc3ccccc3Cl)o2)cc1` (stereo not drawn), the “outcome” value was “inactive”. In the case of `CCOc1ccc(NC(=O)CCc2nc3cccnc3n2Cc2ccc(OC)cc2)cc1`, the “activity change, negative = inhibition” value is reported as inactive: 3.11%. For `O=C(O)COCCN1CCN(C(c2ccccc2)c2ccc(Cl)cc2)CC1` (stereo not drawn), the “activity change, negative = inhibition” value was inactive: 0.747%. For `Cc1ccccc1CN1C(=O)c2ccccc2Sc2ccc(C(=O)O)cc21`, the “outcome” value was “inactive”. In the case of `CC(C)c1ccc(NC(=O)C2CCN(S(=O)(=O)c3ccc(Br)s3)CC2)cc1`, the “activity change, negative = inhibition” value is reported as inactive: -2.59%. For `Cc1ccc(S(=O)(=O)c2nnn3c2nc(NCc2ccccc2)c2sccc23)cc1`, the “activity change, negative = inhibition” value was inactive: 1.32%. In the case of `O=S(=O)(c1cc(Br)c(Br)s1)N1CCN(c2ccccc2)CC1`, the “activity change, negative = inhibition” value is reported as inactive: -24.1%. In the case of `COc1ccccc1C(=O)Nc1cccc(OCc2cc(=O)n3c(C)csc3n2)c1`, the “activity change, negative = inhibition” value is reported as inactive: -4.31%. For `Clc1ccc(Nc2nc(-c3ccccc3)c3ccccc3n2)c(Cl)c1`, the “activity change, negative = inhibition” value was inactive: 2.6%. With `CC(C)Cc1nn2c(=O)cc(COC(=O)c3ccccc3NC(=O)c3cccs3)nc2s1` the “activity change, negative = inhibition” value was inactive: -44.8%. In the case of `CCOc1ccccc1NC(=O)C(=O)c1cc(C)n(-c2cccc(C)c2C)c1C`, the “activity change, negative = inhibition” value is reported as inactive: -10.6%. In the case of `CCOc1ccc(CCNC(=O)c2cc3cc4cc(OC)ccc4nc3s2)cc1OCC`, the “outcome” value is reported as “inactive”. With `CCc1nn2c(=O)cc(COC(=O)c3cccc(NC(=O)COc4ccccc4)c3)nc2s1` the “activity change, negative = inhibition” value was inactive: -18.8%. For `COc1ccc(-c2noc(N3CCN(c4ccc(Cl)cc4)CC3)n2)cc1OC`, the “outcome” value was “inactive”. In the case of `COc1ccc2c(c1)CCc1c(C(=O)Nc3cnn(Cc4ccc(Cl)cc4Cl)c3)noc1-2`, the “activity change, negative = inhibition” value is reported as inactive: -12.9%. In the case of `COc1cccc(NC(=O)CCSc2nc(-c3ccco3)cc(C(F)(F)F)n2)c1`, the “activity change, negative = inhibition” value is reported as inactive: -3.58%. For `COc1ccc(CNC(=O)C2CCN(S(=O)(=O)c3ccc4nc5c(c(C(=O)O)c4c3)CCCC5)CC2)cc1`, the “outcome” value was “inactive”. In the case of `CCc1cccc(C)c1NC(=O)C1CCN(c2nnc(C)c3c(C)n(-c4ccccc4)nc23)CC1`, the “outcome” value is reported as “inactive”. For `Cc1cc(C)cc(NC(=O)Cn2cc(C(=O)c3ccncc3)c(=O)c3cc(C)c(C)cc32)c1`, the “outcome” value was “inactive”. For `Cc1cccc(NC(=O)C2CCN(S(=O)(=O)c3ccc4[nH]c5c(c4c3)CCCCC5)CC2)c1`, the “activity change, negative = inhibition” value was inactive: -7.18%. In the case of `Cc1ccccc1NC(=O)c1cc2sccc2n1Cc1ccc(F)cc1`, the “activity change, negative = inhibition” value is reported as inactive: 7.08%. With `CN(c1ccccc1)S(=O)(=O)c1nnc(NC(=O)c2ccco2)s1` the “activity change, negative = inhibition” value was inactive: 3.68%. For `CCCCCn1c(=O)[nH]c2cc(C(=O)N3CCN(c4cccc(Cl)c4)CC3)ccc2c1=O`, the “activity change, negative = inhibition” value was inactive: 6.15%. In the case of `COc1ccc(OC)c(CNC(=O)c2cc(S(=O)(=O)N3CCC(C)CC3)cn2C)c1`, the “outcome” value is reported as “inactive”. For `COc1ccc(NC(=O)CCc2nc3c(C)nn(-c4ccc(C)cc4)c3n(C)c2=O)c(OC)c1`, the “activity change, negative = inhibition” value was inactive: 3.33%. For `CSc1nn(Cc2ccccc2C)c(NC(C)=O)c1S(=O)(=O)c1ccc(C)cc1`, the “activity change, negative = inhibition” value was inactive: 8.6%. For `CCOC(=O)CCn1c(=O)c2cccn2c2cccnc21`, the “activity change, negative = inhibition” value was inactive: 0.0409%. With `COc1cc2oc(=O)c(CC(=O)NCCc3ccccc3)c(C)c2cc1Cl` the “outcome” value was “inactive”. In the case of `Cc1ccc(NC(=O)/C(C#N)=C\c2ccc(-c3ccc(Cl)cc3)o2)c(C)c1`, the “activity change, negative = inhibition” value is reported as inactive: -5.95%. For `COCCNC(=O)CCCn1c(SCC(=O)c2ccc(F)cc2)nc2c(sc3ccccc32)c1=O`, the “activity change, negative = inhibition” value was inactive: -10.2%. In the case of `O=C(CCS(=O)(=O)c1nc(-c2cccs2)cc(C(F)(F)F)n1)Nc1ccc(Br)cc1`, the Potency is reported as active: 3.16 µM. In the case of `Cc1ccc2nc(-c3ccsc3)c(Nc3ccc(C(C)C)cc3)n2c1`, the “activity change, negative = inhibition” value is reported as inactive: -3.37%. For `COc1ccccc1C(=O)Nc1ccc2nc(SCC(=O)N3CCCC3)sc2c1`, the “activity change, negative = inhibition” value was inactive: -5.49%. With `N[C@@H]1CONC1=O` the “activity change, negative = inhibition” value was inactive: 11.1%. In the case of `Cc1cc2cc(CCNS(=O)(=O)c3ccc(Br)cc3)c(=O)[nH]c2cc1C`, the “activity change, negative = inhibition” value is reported as inactive: -4.24%. For `COCCN1Cc2cccc(C(=O)Nc3ccc(C(=O)OC)cc3)c2C1=O`, the “activity change, negative = inhibition” value was inactive: 8%. In the case of `CCOc1ccc(-c2c(C)nn3c(C)c(C(=O)Nc4cccc(Cl)c4C)cnc23)cc1OCC`, the “outcome” value is reported as “inactive”. For `CCc1ccccc1NC(=O)C(C)n1c(=O)cc(C)c2c(C)nn(-c3ccccc3)c21` (stereo not drawn), the “outcome” value was “inactive”. In the case of `COC(=O)c1ccc(CSc2nc3c([nH]c4ccccc43)c(=O)n2-c2cccc(Cl)c2)o1`, the “outcome” value is reported as “inactive”. With `CCOC(=O)C1CCCN(C(=O)Cn2ncc3c4ccccc4n(Cc4ccccc4)c3c2=O)C1` (stereo not drawn) the “activity change, negative = inhibition” value was inactive: -6.69%.
